This is one part of the list.
Legend:
Test in all cases: glycan array binding signal (z-score within array); higher = stronger binding
Settings in all cases: glycan notation: IUPAC condensed, linker removed
[1] = target: GlcNAc(a1-6)Gal(b1-4)GlcNAc
How it was run: (§1)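 Columns mapping to the same glycan were averaged after glycan names were converted to IUPAC-condensed notation. The data come from 3228 arrays in the Consortium for Functional Glycomics database, limited to those with an available protein sequence. Binding is reported as a within-array Z-score averaged across arrays of one protein sequence and across linkers.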

[2] = target: GlcNAc(b1-2)Gal(b1-3)GalNAc
How it was run: as §1

[3] = target: GlcNAc(b1-2)Man(a1-3)[GlcNAc(b1-2)Man(a1-6)]Man(b1-4)GlcNAc(b1-4)GlcNAc
How it was run: as §1

[4] = target: GlcNAc(b1-2)Man(a1-3)[GlcNAc(b1-2)Man(a1-6)]Man(b1-4)GlcNAc(b1-4)[Fuc(a1-6)]GlcNAc
How it was run: as §1

[5] = target: GlcNAc(b1-2)Man(a1-3)[GlcNAc(b1-4)][GlcNAc(b1-2)Man(a1-6)]Man(b1-4)GlcNAc(b1-4)GlcNAc
How it was run: as §1

[6] = target: GlcNAc(b1-2)[GlcNAc(b1-4)]Man(a1-3)[GlcNAc(b1-2)Man(a1-6)]Man(b1-4)GlcNAc(b1-4)GlcNAc
How it was run: as §1

[7] = target: GlcNAc(b1-2)[GlcNAc(b1-4)]Man(a1-3)[GlcNAc(b1-4)][GlcNAc(b1-2)Man(a1-6)]Man(b1-4)GlcNAc(b1-4)GlcNAc
How it was run: as §1

[8] = target: GlcNAc(b1-2)[GlcNAc(b1-4)]Man(a1-3)[GlcNAc(b1-4)][GlcNAc(b1-2)[GlcNAc(b1-6)]Man(a1-6)]Man(b1-4)GlcNAc(b1-4)GlcNAc
How it was run: as §1

[9] = target: GlcNAc(b1-2)[GlcNAc(b1-6)]Man(a1-6)[GlcNAc(b1-2)Man(a1-3)]Man(b1-4)GlcNAc(b1-4)GlcNAc
How it was run: as §1

[10] = target: GlcNAc(b1-2)[GlcNAc(b1-6)]Man(a1-6)[GlcNAc(b1-2)Man(a1-3)][GlcNAc(b1-4)]Man(b1-4)GlcNAc(b1-4)GlcNAc
How it was run: as §1

GlcNAc(b1-3)Gal = target: GlcNAc(b1-3)Gal
How it was run: as §1

[11] = target: GlcNAc(b1-3)Gal(b1-3)GalNAc
How it was run: as §1

GlcNAc(b1-3)Gal(b1-4)Glc = target: GlcNAc(b1-3)Gal(b1-4)Glc
How it was run: as §1

[12] = target: GlcNAc(b1-3)Gal(b1-4)GlcNAc
How it was run: as §1

[13] = target: GlcNAc(b1-3)Gal(b1-4)GlcNAc(b1-3)Gal(b1-4)GlcNAc
How it was run: as §1

GlcNAc(b1-3)GalNAc = target: GlcNAc(b1-3)GalNAc
How it was run: as §1

GlcNAc(b1-3)Man = target: GlcNAc(b1-3)Man
How it was run: as §1

[14] = target: GlcNAc(b1-3)[GlcNAc(b1-4)][GlcNAc(b1-6)]GlcNAc
How it was run: as §1

[15] = target: GlcNAc(b1-3)[GlcNAc(b1-6)]Gal(b1-4)GlcNAc
How it was run: as §1

[16] = target: GlcNAc(b1-3)[GlcNAc(b1-6)]GalNAc
How it was run: as §1

[17] = target: GlcNAc(b1-4)Gal(b1-4)GlcNAc
How it was run: as §1

GlcNAc(b1-4)GlcNAc = target: GlcNAc(b1-4)GlcNAc
How it was run: as §1

[18] = target: GlcNAc(b1-4)GlcNAc(b1-4)GlcNAc
How it was run: as §1

[19] = target: GlcNAc(b1-4)GlcNAc(b1-4)GlcNAc(b1-4)GlcNAc(b1-4)GlcNAc
How it was run: as §1

[20] = target: GlcNAc(b1-4)GlcNAc(b1-4)GlcNAc(b1-4)GlcNAc(b1-4)GlcNAc(b1-4)GlcNAc
How it was run: as §1

[21] = target: GlcNAc(b1-4)[GlcNAc(b1-6)]GalNAc
How it was run: as §1

[22] = target: GlcNAc(b1-6)Gal(b1-4)GlcNAc
How it was run: as §1

GlcNAc(b1-6)GalNAc = target: GlcNAc(b1-6)GalNAc
How it was run: as §1

GlcNAc3Prop(b1-4)GlcNAc = target: GlcNAc3Prop(b1-4)GlcNAc
How it was run: as §1

[23] = target: GlcNAc6S(b1-3)Gal(b1-4)GlcNAc
How it was run: as §1

Kdn(a2-3)Gal(b1-3)GalNAc = target: Kdn(a2-3)Gal(b1-3)GalNAc
How it was run: as §1

Kdn(a2-3)Gal(b1-3)GlcNAc = target: Kdn(a2-3)Gal(b1-3)GlcNAc
How it was run: as §1

Kdn(a2-3)Gal(b1-4)Glc = target: Kdn(a2-3)Gal(b1-4)Glc
How it was run: as §1

Kdn(a2-3)Gal(b1-4)GlcNAc = target: Kdn(a2-3)Gal(b1-4)GlcNAc
How it was run: as §1

[24] = target: Kdn(a2-3)Gal(b1-4)[Fuc(a1-3)]GlcNAc
How it was run: as §1

Kdn(a2-6)Gal(b1-4)GlcNAc = target: Kdn(a2-6)Gal(b1-4)GlcNAc
How it was run: as §1

[25] = target: Man(a1-2)Man(a1-2)Man(a1-3)Man
How it was run: as §1

[26] = target: Man(a1-2)Man(a1-2)Man(a1-6)[Man(a1-3)]Man
How it was run: as §1

B1: LSectin (Mus musculus), Q8BNX1 (protein)
chain: MNTGEYNKLGSAIEEVSRGQLGRWECYKQRLFFLVLALLVATVLWALILSTLLSSASSKLRVLLSHQDLLRTNASEQKMTLSSLKDDIGACRNCCSVTKAQLQTTLAEFKDIQAKLMEQESILKELQERVTQDLAKASRDRENIRSELFQALEAVKRQNSSCEQCPPSWLPFQGSCYYFSETQATWDTAQSYCGGQGAHLVIVRGLNEQGFLSQHTRGRGYWLGLRAVRHLNKIQGYRWVDGASLNFSHWNSGEPNDSRGHEDCIMMLHSGLWNDAPCTNERDGWICEKRSSCY
- glycan array binding signal (z-score) [1]: -0.159
- glycan array binding signal (z-score) [2]: -0.177
- glycan array binding signal (z-score) [3]: 6.38
- glycan array binding signal (z-score) [4]: 5.47
- glycan array binding signal (z-score) [5]: 7.84
- glycan array binding signal (z-score) [6]: 3.57
- glycan array binding signal (z-score) [7]: 3.6
- glycan array binding signal (z-score) [8]: 1.62
- glycan array binding signal (z-score) [9]: 4.99
- glycan array binding signal (z-score) [10]: 7.22
- glycan array binding signal (z-score) (GlcNAc(b1-3)Gal): -0.164
- glycan array binding signal (z-score) [11]: -0.165
- glycan array binding signal (z-score) (GlcNAc(b1-3)Gal(b1-4)Glc): -0.149
- glycan array binding signal (z-score) [12]: -0.174
- glycan array binding signal (z-score) [13]: -0.177
- glycan array binding signal (z-score) (GlcNAc(b1-3)GalNAc): -0.184
- glycan array binding signal (z-score) (GlcNAc(b1-3)Man): -0.173
- glycan array binding signal (z-score) [14]: -0.159
- glycan array binding signal (z-score) [15]: -0.171
- glycan array binding signal (z-score) [16]: -0.179
- glycan array binding signal (z-score) [17]: -0.166
- glycan array binding signal (z-score) (GlcNAc(b1-4)GlcNAc): -0.173
- glycan array binding signal (z-score) [18]: -0.188
- glycan array binding signal (z-score) [19]: -0.186
- glycan array binding signal (z-score) [20]: -0.184
- glycan array binding signal (z-score) [21]: -0.129
- glycan array binding signal (z-score) [22]: -0.156
- glycan array binding signal (z-score) (GlcNAc(b1-6)GalNAc): -0.176
- glycan array binding signal (z-score) (GlcNAc3Prop(b1-4)GlcNAc): -0.168
- glycan array binding signal (z-score) [23]: -0.172
- glycan array binding signal (z-score) (Kdn(a2-3)Gal(b1-3)GalNAc): -0.194
- glycan array binding signal (z-score) (Kdn(a2-3)Gal(b1-3)GlcNAc): -0.159
- glycan array binding signal (z-score) (Kdn(a2-3)Gal(b1-4)Glc): -0.189
- glycan array binding signal (z-score) (Kdn(a2-3)Gal(b1-4)GlcNAc): -0.15
- glycan array binding signal (z-score) [24]: -0.191
- glycan array binding signal (z-score) (Kdn(a2-6)Gal(b1-4)GlcNAc): -0.192
- glycan array binding signal (z-score) [25]: -0.166
- glycan array binding signal (z-score) [26]: -0.186
